Source: PubChem BioAssay AID686978 (National Center for Advancing Translational Sciences (NCATS), 2013)
The campaign covered roughly 420,000 compounds. About 64,000 (15%) were called active. Inconclusive means that the source gave no clear call. Such entries were picked first, then a sample of the others. Calls come from the whole dose curve; as a rule, active = well fitted inhibition curve with a large enough effect; inconclusive = small, poorly fitted or top-dose-only effect; inactive = flat fitted curve, though single readings scatter. No potency is given beside an inconclusive call; the fits are too rough.
Potency is the fitted concentration of half-maximal effect; tags give direction and shape of the fitted curve.

Experiment: qHTS for Inhibitors of human tyrosyl-DNA phosphodiesterase 1 (TDP1): qHTS in cells in absence of CPT; note: nearly all actives have a fitted effect of over 55% in size
Settings: DT40 Tdp1-/- hTDP1 cells, no CPT, ATP luminescence, 48 h; series mostly up to 46.2 µM
In short: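 No-CPT arm: Tdp1-/-;hTDP1 DT40 cells (400/well) plus compounds, incubated ≥48 hr at 37 °C. Readout CellTiter-Glo luminescence.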
For `Cc1cc(C)c(Cn2c3ccccc3c3cnn(CC(=O)NC4CCCCCC4)c(=O)c32)c(C)c1`, the Potency was inconclusive [inhibitor, full curve, poor fit].
In the case of `Cc1ccc(N(C(=O)Cn2nnc(-c3ccc(F)cc3)n2)C(C(=O)NC(C)(C)C)c2ccncc2)cc1` (centres undefined), the Potency is reported as “inactive”.
With `Cc1ccccc1-n1ncc2c1CC(C)(C)CC2NC(=O)c1snnc1C` (centres undefined) the Potency was active: 25.9 µM.
With `CC1CCN(C(=S)NC(=O)c2ccc(F)cc2)CC1` the Potency was inconclusive [inhibitor, single point].
For `CCCN(CC(=O)Nc1ccc(F)c(F)c1F)C(=O)Cn1c(=O)cnc2ccccc21`, the Potency was “inactive”.
With `COc1cccc(C(=O)NCc2ccccc2OC)c1` the Potency was “inactive”.
With `COc1cc(OC)cc(C(=O)N[C@H](C(=O)NCc2ccccc2)C(C)C)c1` the Potency was inconclusive [inhibitor, partial curve].
For `Cc1ccc(F)c(S(=O)(=O)NC(=O)C2(C)CCN2C(=O)CC(c2ccccc2)c2ccccc2)c1` (centres undefined), the Potency was active: 20.6 µM.
In the case of `c1ccc(Cn2nnc3c(N4CCc5ccccc5C4)ncnc32)cc1`, the Potency is reported as inconclusive [inhibitor, partial curve, poor fit].
For `COc1cccc(Cn2c(=O)c(C)nc3cnc(N4CCN(C)CC4)nc32)c1`, the Potency was inconclusive [inhibitor, single point].
For `Cc1ccc(CNC(=O)[C@H]2C[C@@H]2[C@H](NP(=O)(c2ccccc2)c2ccccc2)c2ccccc2)o1`, the Potency was active: 20.6 µM.
With `CC1(C(=O)NCc2cccc(Cl)c2)Cc2c(-c3ccc(C(N)=O)cc3)ccnc2O1` (centres undefined) the Potency was inconclusive [inhibitor, full curve, poor fit].
For `CC(C)(Sc1cc(C(C)(C)C)c(O)c(C(C)(C)C)c1)Sc1cc(C(C)(C)C)c(O)c(C(C)(C)C)c1`, the Potency was inconclusive [inhibitor, partial curve].
In the case of `CC1CCN(C(=S)NC(=O)c2ccc(C(C)(C)C)cc2)CC1`, the Potency is reported as inconclusive [inhibitor, single point].
For `CCN1CCCC1CNC(=O)C(=O)NC(C)C` (centres undefined), the Potency was “inactive”.
In the case of `CN(Cc1c(C(=O)N/N=C/c2cc(F)ccc2F)nnn1-c1nonc1N)C1CCCCC1`, the Potency is reported as “inactive”.
For `O=C1CSc2ccc(S(=O)(=O)CCC(=O)NC3CCCCC3)cc2N1`, the Potency was inconclusive [inhibitor, single point].
With `CCn1c(SCC(=O)N/N=C/c2c[nH]c3ccccc23)nnc1-c1ccc(Cl)cc1` the Potency was inconclusive [inhibitor, single point].
With `O=C(COC(=O)c1cccc(OC(F)F)c1)Nc1ncccn1` the Potency was “inactive”.
